{
  "source": "patent US20210269542A1",
  "about": "(POTENZA THERAPEUTICS, published 2021)",
  "key": {"cyno GITR-Fc": {"target": "T1, cyno GITR-Fc (cynomolgus monkey)", "T1 construct": "also called cGITR; cynomolgus GITR", "T1 chain": "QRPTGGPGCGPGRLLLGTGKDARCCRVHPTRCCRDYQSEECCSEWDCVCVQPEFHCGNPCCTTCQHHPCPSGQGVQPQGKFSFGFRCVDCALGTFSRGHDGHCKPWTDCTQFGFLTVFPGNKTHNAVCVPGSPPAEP", "test": "BLI Octet RED384, ABP on AHQ sensor, 100 nM antigen, single concentration;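 also: association and dissociation each tracked over 180 s, with dissociation run in antigen-free buffer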"}, "human GITR-Fc": {"target": "T2, human GITR-Fc (human, UniProt Q9Y5U5 26-162)", "T2 construct": "also called recombinant hGITR; wild type human GITR-Fc", "T2 sequence": "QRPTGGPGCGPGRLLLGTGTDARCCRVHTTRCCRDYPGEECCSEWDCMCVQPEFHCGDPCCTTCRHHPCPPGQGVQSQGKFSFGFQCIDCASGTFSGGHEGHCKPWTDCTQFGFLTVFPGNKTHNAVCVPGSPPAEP", "test": "BLI Octet RED384, ABP on AHQ sensor, 100 nM antigen, single concentration"}, "[1]": {"target": "T3, human GITR expressed on cells (human, UniProt Q9Y5U5 26-241)", "T3 sequence": "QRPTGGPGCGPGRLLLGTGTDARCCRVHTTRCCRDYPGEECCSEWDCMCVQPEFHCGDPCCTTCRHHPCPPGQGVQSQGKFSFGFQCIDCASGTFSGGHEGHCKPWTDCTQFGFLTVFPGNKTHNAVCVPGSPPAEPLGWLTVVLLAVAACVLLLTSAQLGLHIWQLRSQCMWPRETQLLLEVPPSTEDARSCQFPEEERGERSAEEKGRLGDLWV", "test": "cell-based or functional assay"}},
  "data": [
    {"binder": "ABP29 (antibody, human IgG4 S228P, kappa) heavy: QVQLQESGPGLVKPSETLSLTCAVSGYSISSEYMWGWIRQPPGKGLEWIGLIYHSGKTYYNPSLKSRVTISVDTSKNQFSLKLSSVTAADTAVYYCARDSGRGYGDYGGHHAFDIWGQGTMVTVSSASTKGPSVFPLAPCSRSTSESTAALGCLVKDYFPEPVTVSWNSGALTSGVHTFPAVLQSSGLYSLSSVVTVPSSSLGTKTYTCNVDHKPSNTKVDKRV[human IgG4 Fc with S228P (EU numbers) left out]GGGGSGGGGSGGGGSQVQLQESGPGLVKPSETLSLTCAVSGYSISSEYMWGWIRQPPGKGLEWIGLIYHSGKTYYNPSLKSRVTISVDTSKNQFSLKLSSVTAADTAVYYCARDSGRGYGDYGGHHAFDIWGQGTMVTVSSASTKGPSVFPLAPSSKSTSGGTAALGCLVKDYFPEPVTVSWNSGALTSGVHTFPAVLQSSGLYSLSSVVTVPSSSLGTQTYICNVNHKPSNTKVDKRVEPKSC light: [about 100 residues left out][about 120 residues left out]", "values": [
      {"measurement": "binding result", "setting": "cyno GITR-Fc", "result": "no binding (tested: 100 nM)"},
      {"measurement": "Kd", "setting": "human GITR-Fc", "result": 5.7, "unit": "nM"},
      {"measurement": "Average EC50 in Human HT1080 (IL-8 induction)", "setting": "[1]", "result": 0.27, "unit": "nM"}
    ]},
    {"binder": "ABP30 (antibody, human IgG4 S228P, kappa) heavy: QVQLQESGPGLVKPSQTLSLTCTVSGGSISSGGAVWSWIRQHPGKGLEWIGGIAYSGSTYYNPSLKSRVTISVDTSKNQFSLKLSSVTAADTAVYYCARDSVRGYGDYGGHHAFDIWGQGTMVTVSSASTKGPSVFPLAPCSRSTSESTAALGCLVKDYFPEPVTVSWNSGALTSGVHTFPAVLQSSGLYSLSSVVTVPSSSLGTKTYTCNVDHKPSNTKVDKRV[human IgG4 Fc with S228P (EU numbers) left out]GGGGSGGGGSGGGGSQVQLQESGPGLVKPSQTLSLTCTVSGGSISSGGAVWSWIRQHPGKGLEWIGGIAYSGSTYYNPSLKSRVTISVDTSKNQFSLKLSSVTAADTAVYYCARDSVRGYGDYGGHHAFDIWGQGTMVTVSSASTKGPSVFPLAPSSKSTSGGTAALGCLVKDYFPEPVTVSWNSGALTSGVHTFPAVLQSSGLYSLSSVVTVPSSSLGTQTYICNVNHKPSNTKVDKRVEPKSC light: [about 100 residues left out][about 120 residues left out]", "values": [
      {"measurement": "binding result", "setting": "cyno GITR-Fc", "result": "no binding (tested: 100 nM)"},
      {"measurement": "Kd", "setting": "human GITR-Fc", "result": 5.6, "unit": "nM"},
      {"measurement": "Average EC50 in Human HT1080 (IL-8 induction)", "setting": "[1]", "result": 0.31, "unit": "nM"}
    ]},
    {"binder": "ABP31 (antibody, human IgG4 S228P, kappa) heavy: QVQLQESGPGLVKPSETLSLTCAVSGYSISSEYMWGWIRQPPGKGLEWIGLIYHSGKTYYNPSLKSRVTISVDTSKNQFSLKLSSVTAADTAVYYCARDSGRGYGDYGGHHAFDIWGQGTMVTVSSASTKGPSVFPLAPCSRSTSESTAALGCLVKDYFPEPVTVSWNSGALTSGVHTFPAVLQSSGLYSLSSVVTVPSSSLGTKTYTCNVDHKPSNTKVDKRV[human IgG4 Fc with S228P (EU numbers) left out]GGGGSQVQLQESGPGLVKPSETLSLTCAVSGYSISSEYMWGWIRQPPGKGLEWIGLIYHSGKTYYNPSLKSRVTISVDTSKNQFSLKLSSVTAADTAVYYCARDSGRGYGDYGGHHAFDIWGQGTMVTVSSASTKGPSVFPLAPSSKSTSGGTAALGCLVKDYFPEPVTVSWNSGALTSGVHTFPAVLQSSGLYSLSSVVTVPSSSLGTQTYICNVNHKPSNTKVDKRVEPKSC light: [about 100 residues left out][about 120 residues left out]", "values": [
      {"measurement": "binding result", "setting": "cyno GITR-Fc", "result": "no binding (tested: 100 nM)"},
      {"measurement": "Kd", "setting": "human GITR-Fc", "result": 7.6, "unit": "nM"},
      {"measurement": "Average EC50 in Human HT1080 (IL-8 induction)", "setting": "[1]", "result": 0.18, "unit": "nM"}
    ]},
    {"binder": "ABP32 (antibody, human IgG4 S228P, kappa) heavy: QVQLQESGPGLVKPSQTLSLTCTVSGGSISSGGAVWSWIRQHPGKGLEWIGGIAYSGSTYYNPSLKSRVTISVDTSKNQFSLKLSSVTAADTAVYYCARDSVRGYGDYGGHHAFDIWGQGTMVTVSSASTKGPSVFPLAPCSRSTSESTAALGCLVKDYFPEPVTVSWNSGALTSGVHTFPAVLQSSGLYSLSSVVTVPSSSLGTKTYTCNVDHKPSNTKVDKRV[human IgG4 Fc with S228P (EU numbers) left out]GGGGSQVQLQESGPGLVKPSQTLSLTCTVSGGSISSGGAVWSWIRQHPGKGLEWIGGIAYSGSTYYNPSLKSRVTISVDTSKNQFSLKLSSVTAADTAVYYCARDSVRGYGDYGGHHAFDIWGQGTMVTVSSASTKGPSVFPLAPSSKSTSGGTAALGCLVKDYFPEPVTVSWNSGALTSGVHTFPAVLQSSGLYSLSSVVTVPSSSLGTQTYICNVNHKPSNTKVDKRVEPKSC light: [about 100 residues left out][about 120 residues left out]", "values": [
      {"measurement": "binding result", "setting": "cyno GITR-Fc", "result": "no binding (tested: 100 nM)"},
      {"measurement": "Kd", "setting": "human GITR-Fc", "result": 6.4, "unit": "nM"},
      {"measurement": "Average EC50 in Human HT1080 (IL-8 induction)", "setting": "[1]", "result": 0.3, "unit": "nM"}
    ]}
  ]
}
